Experimental data as given in paper PMC4336329 (PLoS ONE, 2015).
Screen size: about 310,000 compounds; about 14,000 (4.5%) showed an effect of 50% or more. The effect is printed as a negative number. The list shows a part of the results.

The molecules below were run against human ether-à-go-go-related gene (hERG) potassium channel (human, UniProt Q12809) (assay: primary screen, population patch clamp on CHO cells stably expressing hERG).
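Note: peak tail current of the secondary pulse compared with the same well before compound.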

Chain of human ether-à-go-go-related gene (hERG) potassium channel (Q12809 whole entry, looked up): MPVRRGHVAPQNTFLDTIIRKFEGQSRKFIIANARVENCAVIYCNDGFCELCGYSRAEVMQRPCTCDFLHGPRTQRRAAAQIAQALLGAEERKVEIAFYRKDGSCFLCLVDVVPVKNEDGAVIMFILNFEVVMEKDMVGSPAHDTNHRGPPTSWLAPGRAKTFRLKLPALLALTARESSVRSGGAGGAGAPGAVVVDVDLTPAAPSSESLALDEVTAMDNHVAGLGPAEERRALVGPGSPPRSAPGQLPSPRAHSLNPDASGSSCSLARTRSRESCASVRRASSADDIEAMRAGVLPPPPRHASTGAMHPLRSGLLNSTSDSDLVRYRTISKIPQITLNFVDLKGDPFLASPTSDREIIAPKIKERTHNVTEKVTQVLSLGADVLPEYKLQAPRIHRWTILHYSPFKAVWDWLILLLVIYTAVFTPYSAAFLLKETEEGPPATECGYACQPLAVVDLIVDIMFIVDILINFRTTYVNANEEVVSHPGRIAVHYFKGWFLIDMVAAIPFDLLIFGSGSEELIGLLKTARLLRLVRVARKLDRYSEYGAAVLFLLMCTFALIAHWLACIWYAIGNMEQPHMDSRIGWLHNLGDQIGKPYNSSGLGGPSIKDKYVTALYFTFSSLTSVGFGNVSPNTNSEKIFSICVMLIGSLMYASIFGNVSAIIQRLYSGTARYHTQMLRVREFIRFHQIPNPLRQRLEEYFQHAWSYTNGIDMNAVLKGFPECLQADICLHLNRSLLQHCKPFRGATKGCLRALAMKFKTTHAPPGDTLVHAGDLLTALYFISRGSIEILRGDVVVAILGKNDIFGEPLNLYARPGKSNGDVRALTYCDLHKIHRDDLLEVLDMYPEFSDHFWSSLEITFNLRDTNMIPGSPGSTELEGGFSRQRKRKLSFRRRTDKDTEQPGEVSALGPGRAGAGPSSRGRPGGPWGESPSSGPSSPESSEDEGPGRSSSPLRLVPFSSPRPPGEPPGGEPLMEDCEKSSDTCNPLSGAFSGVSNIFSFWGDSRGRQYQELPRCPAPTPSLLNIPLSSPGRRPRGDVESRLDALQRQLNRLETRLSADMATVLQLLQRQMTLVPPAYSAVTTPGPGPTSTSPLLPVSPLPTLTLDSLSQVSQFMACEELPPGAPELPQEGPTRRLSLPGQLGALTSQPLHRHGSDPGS

Compound | hERG current change (%, negative = inhibition) at 10uM [%]
CC1CCC(NC(=O)C2CC(=O)N(c3ccc4c(c3)OCCO4)C2)CC1 (stereo not shown) | 8.92
COC(=O)c1cc(-c2ccc(S(=O)(=O)N3CCCCC3)cc2)c(C(F)(F)F)s1 | -8.2
O=C(Nc1nc2ccsc2c(=O)s1)c1ccc(F)cc1Cl | 8.09
CCOC(=O)C1=C(c2ccc(OC)cc2)OC(N)=C(C#N)C1c1cccnc1 (stereo not shown) | 1.19
Nc1ccc(S(N)(=O)=O)cc1N.O=S(=O)(O)O | 22.3
CC(C)COc1ccc(C(=O)OC2CC(C)(C)OCC2CN(C)C)cc1.Cl (stereo not shown) | -38.1
CCOC(=O)c1ccc(NC(=O)CN2C(=O)CNC2=O)cc1 | 17.4
O=c1ccc(-c2ccc(S(=O)(=O)Nc3ccc(F)cc3)s2)n[nH]1 | -14.8
COc1ccc(OC2CCN(S(=O)(=O)c3ccc(F)cc3)CC2)cc1 | 6.65
NC1=Nc2cccc3cccc1c23 | 21.3
O=C(CN1C(=O)NC2(CCSC2)C1=O)N1CCN(c2ccc(F)cc2)CC1 (stereo not shown) | -24.6
Cc1cccc(-c2cccc(NC(=O)C3CCCN(C(=O)c4csc(C)n4)C3)c2)c1 (stereo not shown) | -30.6
CC(C)(C)NC(=O)C1CCC(CNS(=O)(=O)c2cccc3nsnc23)CC1 (stereo not shown) | -8.07
COc1ccc(-n2c(COc3ccccc3)nnc2SCC(N)=O)cc1 | 0.9
c1ccc(-c2cncnc2)nc1 | 3.74
CCOC(=O)n1c(=O)[nH]c2ccc(Br)cc21 | 2.18
O=C(/C=C/c1ccc(Cl)cc1)NC(=S)Nc1ccccc1C(=O)O | 13.3
Cc1nc(CSc2nnc(C)s2)cs1 | -12.9
O=C(NCCOc1ccccc1)C1CCCCC1 | 20
COc1cc(OC)cc(C(=O)Nc2ccccc2-c2nnn(CC(N)=O)n2)c1 | 2.92
CCOC(=O)c1ccc(N=CC2=C(O)CC(C)(C)CC2=O)cc1 | -1.3
CN(C(=S)NC(=O)c1ccccc1Br)C1CCCCC1 | -13.5
Oc1c(N=Nc2ccccc2)sc2ccccc12 | -1.59

Compound | hERG current change (%, negative = inhibition) at 10uM [%]
COC(=O)c1ccsc1NC(=O)C1COc2ccccc2O1 (stereo not shown) | 3.5
CC1(C)CC(=O)C(C(=S)Nc2ccccc2)=C(NCCN2CCOCC2)C1 | -36.9
COc1ccc(C(C(=O)NC(C)(C)C)N(CCC(C)C)C(=O)CCC(=O)Nc2cc(C)on2)cc1 (stereo not shown) | 6.67
CCOC(=O)c1c(OCCO)nn(-c2ccc(Cl)cc2)c1N | -51.8
Cl.NC1=NC2(CCCCC2)N(c2ccc(F)cc2F)C(N)=N1 | 14
CN(CC(=O)NC1CCCCC1)S(=O)(=O)c1ccc(Cl)cc1 | -0.709
COc1ccc(CSc2nc(CSC)cc(N3CCOCC3)n2)cc1 | -7.91
O=C(Nc1ccc2c(c1)OCCO2)C1CCN(S(=O)(=O)c2cccc3nsnc23)CC1 | 11.1
COc1ccc(C(=O)NCCn2ccc3ccccc32)cc1 | -15.3
Cc1ccoc1C(=O)N1CCCC(CO)(Cc2ccc(F)cc2)C1 (stereo not shown) | -8.01
CC(=O)/C=C1\SC(CC(=O)O)C(=O)N1c1ccccc1 (stereo not shown) | 13.9
O=C(NC1CCCC1)C1c2ccccc2C(=O)N1CCCN1CCOCC1 (stereo not shown) | -5.42
Nc1ccc(Sc2nc3ccccc3[nH]2)cc1 | -0.417
FC(F)(F)c1cc(-c2ccc(Cl)cc2)nc2ncnn12 | -16.2
CCc1cc2c(=O)n(-c3ccc(C)cc3)cnc2s1 | -8.64
Nn1c(SCc2nc3ccccc3[nH]2)nnc1C1CCCCC1 | -4.65
CC(=O)c1ccc(N(C(=O)c2ccco2)C(C(=O)NC2CCCC2)c2cccs2)cc1 (stereo not shown) | -40.4
CCOC(=O)C1=C(C)OC(N)=C(C#N)C1C1CCCCC1 (stereo not shown) | 4.26
CCOC(=O)c1c(-c2ccncc2)csc1N | 3.63
Cc1ccc(C23CC4CC(CC(C(N)=O)(C4)C2)C3)cc1 | 8.28
COC(=O)c1ccc(CS(=O)(=O)c2ccccc2C)o1 | 1.93
Cc1noc(C)c1COc1cccc(C(=O)Nc2ccccc2)c1 | -7.11
CCOC(=O)c1c(C)[nH]c(C)c1C(=O)COC(=O)c1cc(OC)cc(OC)c1 | -36.3

Compound | hERG current change (%, negative = inhibition) at 10uM [%]
Cc1cc(C)n(-c2nnc(C)c(=O)[nH]2)n1 | -7.49
Cc1cccc(NCc2ccc(O)c3ncccc23)c1C | 15
CC(C)=C(NC(=O)c1ccccc1)C(=O)NC(Cc1ccccc1)C(=O)O (stereo not shown) | 15.9
COc1ccc(OC2C(=O)N(c3ccc(C)c(C)c3)C2c2ccc(OC)c(OC)c2)cc1 (stereo not shown) | -28.1
O=C(COC(=O)C1CC2CCCC(C1)C2=O)c1cccc(Br)c1 (stereo not shown) | -31.7
COc1ccc(OC)c(NC(=O)c2cc(-c3cc(C)ccc3O)n[nH]2)c1 | 19
COC(=O)c1cccc(NS(=O)(=O)c2cccs2)c1C | 2.1
CCOC(=O)c1ccc(N2C=C(C(=O)OC)C(c3cccc(O)c3)C(C(=O)OC)=C2)cc1 | 11
COC(=O)Cn1c(O)c(N=NC(=O)CNC(=O)c2ccncc2)c2ccccc21 | 9.25
CCOc1ccccc1-n1c(CN2CCN(C(=O)c3ccco3)CC2)nc2ccccc2c1=O | -26.2
CC(NC(=O)C(C)(C)C)C(c1cccs1)N1CCN(Cc2ccccc2)CC1 (stereo not shown) | -14.3
Fc1ccccc1-c1csc(=Nc2cccnc2)n1CCCn1ccnc1 | -60.1
COC(=O)c1c(NC(=O)c2ccc(C)cc2)sc(Cc2ccccc2)c1C | 16.7
O=C(O)C1CC(c2ccccc2)=NO1 (stereo not shown) | 3.78
CCCCn1c2c(c(=O)n(C)c1=O)C(CC(=O)OCC(=O)Nc1cccc(C(F)(F)F)c1)C(=O)N2 (stereo not shown) | -5.56
O=C(Nc1ccc(Cl)c([N+](=O)[O-])c1)c1ccncc1 | -22.6
COc1ccc(-c2nc(CSCC(=O)N3CCc4ccccc4C3)c(C)o2)cc1OC | -11.9
CCc1nc2ccccc2c(C(=O)OCC(=O)C(C)(C)C)c1C | -15
CCOC(=O)C1CCN(C=C2C(=O)N(C)C(=S)N(C)C2=O)CC1 | -7.03
COc1cccc(CNC(=O)CCn2ccc3cc(S(=O)(=O)N4CCCC4)ccc32)c1 | -7.87
COc1ccccc1N1CCN(C2CC(=O)N(C)C2=O)CC1 (stereo not shown) | 14.6
NS(=O)(=O)c1ccc(CCNC(=O)c2ccc(CS(=O)(=O)c3ccc(Br)cc3)o2)cc1 | 27
COc1ccc(COC(=O)N/N=C(\C)CC(=O)Nc2c(C)cc(C)cc2C)cc1 | 5.92

Compound | hERG current change (%, negative = inhibition) at 10uM [%]
CCC(C(=O)OC)n1cnc2c(cnn2-c2ccc(Cl)cc2)c1=O (stereo not shown) | 2.26
CCOC(=O)c1cc2c(s1)-c1ccccc1CC2 | 11.3
COc1ccccc1NC(=S)N(Cc1cccs1)C1CCCC1 | -10.2
Cc1ccc(N(CC(=O)NCc2ccc(F)cc2)C(=O)c2csnn2)cc1C | -2.25
N#Cc1cn(CCOc2ccc(F)cc2)c2ccccc12 | 1.56
O=C(Cn1c(-c2cscn2)nc2ccccc21)Nc1ccc2ccccc2c1 | 0.712
Cc1ccc(/C=C/C(=O)OCC(=O)Nc2ccc3[nH]c(=O)[nH]c3c2)o1 | 2.52
COc1ccc(-c2nc(CS(=O)CC(=O)NCCN3CCCCCC3)c(C)o2)cc1OC (stereo not shown) | -0.18
COc1ccc(CNC(=O)Cn2cc(C(F)(F)F)ccc2=O)cc1OC | 20.3
Cc1c(C(=O)Nc2nnc(C3CC3)s2)oc2ccccc12 | 3.16
Cc1cc(N2CCOCC2)nc2cc(O)ccc12 | 0.19
COc1ccccc1CNC(=O)CSc1nn2c(=O)c(C(C)(C)C)nnc2s1 | 13.3
CCc1nccn1C(=O)c1cnn2c(C(F)F)cc(-c3ccc(C)cc3)nc12 | -14.5
CCCCC(O)(C(NC=O)C(=O)OC)C(F)(F)F (stereo not shown) | 10.3
COC(=O)C(O)(CC(=O)Nc1ccccc1OC)C(F)(F)F (stereo not shown) | 4.02
O=C(CN1CCC(NC(=O)c2ccc(F)cc2)CC1)NCc1ccccc1F | -22.5
COc1ccc(-c2c(-c3cc(OC)cc(OC)c3)n(C)c3ccc(-c4cc(F)cc(OC)c4)cc23)cc1 | 16.5
CCC(=O)N1CCN=C1SCc1cccc(F)c1 | 2.06
O=C(COc1cccc(Cl)c1)Nc1cc(S(=O)(=O)N2CCOCC2)ccc1N1CCOCC1 | -24.6
N#CCN(C(=O)COC(=O)C1CC2CCCC(C1)C2=O)c1ccccc1 (stereo not shown) | 14.7
COc1cccc(C2C(C(=O)c3sc(C)nc3C)=C(O)C(=O)N2CCN2CCOCC2)c1OC (stereo not shown) | 10.7
O=C(Nc1ccc(S(=O)(=O)Nc2cnc3ccccc3n2)cc1)c1ccc(Br)o1 | -11.8
